Here are results for 167 variants from the RNAGym collection of RNA variant scans (doi:10.1093/nar/gkz1192).

The source gives no read counts; variants with many changes may rest on few reads.

Sequences and labels used below:
B1: CPEB3 Ribozyme (parent)
chain: UAACAGGGGGCCACAGCAGAAGCGUUCACGUCGCAGCCCCUGUCAGAUUCUGGUGAAUCUGCGAAUUCUGCUGUAUAUCUC

The variants in the series derive from B1. The series can be described thus: self-cleavage, relative activity (ratio to wild type); higher = more cleavage; in vitro, sequencing. An outline of the steps:
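For each CPEB3 ribozyme variant, relative activity is its cleaved/total read fraction divided by the unmutated ribozyme's. Barcoded error-prone PCR libraries were transcribed by T7 RNA polymerase (5 hours, 37°C) and held in DNase I for 15 min before an EDTA stop, with cleavage occurring throughout. Template-switching reverse transcription and Illumina sequencing were used to read the RNAs. A 5-read minimum applied, and results are the mean of three batches.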
As for G24U A35G G70A, the self-cleavage came out at 0.37. Turning to U25C A47G A56G, the self-cleavage stood at 0.52. As for G24C A45C U72C, the figure is 0.21; as for U25C A45U A47U U54C A75G, 0.09; as for U25C A28G U78A, 0.23. As for U25A C44U A64U C71U, the figure is 0.09; as for G24U U51C U69A U80C, 0.07. As for U25A U49A U69G, the figure is 0.09; as for U25A C62U A65U U76C, 0.11.

As to U25C A28G U58A A77G, the self-cleavage stood at 0.16.

Take U25A A64U U67C U72C U74C U78C: the self-cleavage amounted to 0. In the case of G24C A56U U66C, the self-cleavage was determined as 0.16. The value for U25C C32G U41C U54C was 0.22. For U25C C29U U72C, the self-cleavage amounted to 0.13. As for U25A U31C U43G A56G A57G A64G, the figure is 0.36. The value for U25A U26C U58A U80C was 0.32; that for U25A C39G U74G was 0.29. The value for U25C A45U A47U A75U was 0.19. For the variant U25A C29G U80C, the self-cleavage was found to be 0.6. The value for U25A U26C A28G U69A was 0.1; that for U25C A45U U58C U72C U74C was 0.15; that for U25C A35U A47C was 0.1.

With U25A U41C A64U, the self-cleavage amounted to 0.21.

As to U25C A35G C40U C50U, the self-cleavage is 0.19.

As for U25A U31C G46A, the self-cleavage worked out at 0.19. As for U25C A28G G52C U78C, the figure is 0.05. The value for U25A U60G A65G U67C was 0.12; that for U25A U43G A45G was 0.24; that for U25A A28G A45U A64U A77G U80C was 0.11. As for U25C A57G U72A, the figure is 0.13. U25C A35G U49A U54A U60A: the self-cleavage was 0.19.

Consider U25A U43C C62A U67C A75G, for which the self-cleavage stood at 0.08. The value for G24C U49C A77C was 0.08; that for U25A U41C A57G was 0.15; that for U25A C50A U51A was 0.12. As for G24C U49C U78C, the self-cleavage is 0.16. The value for U25C A45G U51A U78C was 0.15; that for U25A A35G U69C was 0.07; that for U25C A57C A65G U66G U76A U80C was 0.08.

Regarding U25C A35U C62G, the self-cleavage was 0.17. The value for U25A A28U C39U A45C U48G U51A G55U was 0.1; that for U25A G46A A47C was 0.06; that for U25C A45U U49A U69A was 0.09. As to G24C U31A A35U U51C, the self-cleavage came out at 0.08. Consider U25C A45G U60A A64G, for which the self-cleavage is 0.18. Regarding U25C A45C U51C U72C, the self-cleavage amounted to 0.09. On to G24U U25C A45U A65U, for which the self-cleavage stood at 0.14. As for G24U U60C U72C U80C, the figure is 0.08. As for U25C A28U U41A G61A, the figure is 0.29. On to U25C A57G U67A, for which the self-cleavage was found to be 0.17. The value for U25A C29G C38U A45G was 0.09. On to U25A A35G A77U U78A, for which the self-cleavage turned out to be 0.14.

Take U25A U26A U31C U49C U66C: the self-cleavage is 0.09.

In the case of U25C C27A A64G U80C, the self-cleavage is 0.52.

For the variant U25A U58C U67A A77G, the self-cleavage was 0.04. For U25C A35G C39G U41C A64G G73A, the self-cleavage was determined as 0.08. The value for U25A U26C A47G A57U G63U A64U was 0.08; that for U25A U43C C59U was 0.21. As for G24U A45G G53A U72A, the figure is 0.05; as for U25C A28U C32A A35G A56G, 0.16. The value for U25A U49C U66A was 0.13. With U25C C27A G30U A77G, the self-cleavage is 0.09. As for U25A A28U U41A, the figure is 0.4; as for U25C A35U U51A U74C, 0.14. As for U25C A28G U31A U51C C62U, the figure is 0.11. Regarding U25C A35U U41A A75U, the self-cleavage worked out at 0.1. Take U25A A28U A45G U76C: the self-cleavage was 0.04. As for U25A U26C U54C U58C, the figure is 0.09. As for U25C A56G U67C, the figure is 0.08; as for U25A U43C A56U U58C U66A G70A, 0.16; as for U25C C27G A45G U51C U67A, 0. The value for G24C U31C U41A U48C C59A was 0.06; that for U25A U51A G52A A57U was 0.14; that for U25C A28G U51C was 0.07. Turning to U25A U26C A28G U48G, the self-cleavage was found to be 0.26. For the variant U25C A28U A64U, the self-cleavage is 0.48. Regarding U25A U26A A56G A65G, the self-cleavage was determined as 0.08. Regarding U25C A45U A64U, the self-cleavage stood at 0.08. As for U25C A35G U58C U69C, the figure is 0.12; as for U25C A28G A45U U58C U72G, 0.02; as for U25A A28G A45G G46A, 0.14.

Turning to U25C A35G C40U G55U, the self-cleavage came to 0.24. For the variant U25C A45G A56U, the self-cleavage turned out to be 0.24. Turning to U25A U48A A57U U69A, the self-cleavage was found to be 0.1. G24C U26A A56U G61A: the self-cleavage was found to be 0.07. With U25C A47G A57U, the self-cleavage was found to be 0.11. The value for U25C C29G U66A U76C was 0.2. Take U25A U26G C34A A45G U66C: the self-cleavage came to 0.12. The value for U25A U41C U72C was 0.19. In the case of U25C A45C U60A, the self-cleavage stood at 0.08. As for G24U U31C A64U U69C, the self-cleavage turned out to be 0.05. As for U25A U43C U49C A65G U80A, the figure is 0.12. For the variant G24C G36U G53A U58G, the self-cleavage was determined as 0.11. The value for U25A C32U G46A A64C A65U was 0.09.

Consider U25C A35U U41C A64G U67C U69A, for which the self-cleavage is 0.06.

In the case of U25A A45G A47U A56G U69C, the self-cleavage came out at 0.06. As for U25A G63A A65G U69A, the figure is 0.08; as for U25C A35U A47U U49C A56U U58C U74C, 0.04. The value for U25C C27U C50U U54C U67A was 0.05. As for G24U A65U U80C, the figure is 0.13. For the variant G24U A45G G53A U60C, the self-cleavage is 0.29. The value for U25A U41G A45G was 0.24; that for U25C A45G U66C was 0.12; that for U25C A45G A56G U66C was 0.31. The value for U25A C40U U54C A56C U67C was 0.1. In the case of G24U U31C A65G, the self-cleavage turned out to be 0.4. Turning to G24C A28G U49C A56U, the self-cleavage came out at 0.09. For the variant U25A A28G A45G U58A, the self-cleavage was 0.04. As for U25C C32U A65G U80C, the figure is 0.11. The value for G24U A35G U41A A45G G53A was 0.14. The value for G24C C29U U69A U72A was 0.15; that for U25C A28U U48C was 0.14. U25C A56U U76C: the self-cleavage came out at 0.43. As for G24C A45U U72G, the figure is 0.1; as for U25A U43C G53C U58C, 0.07; as for U25A U43C A47G A57U G63U, 0.17.

Regarding G24U A56U U69C, the self-cleavage amounted to 0.22.

Consider U25C A57G U66C U67A C79A U80C, for which the self-cleavage was found to be 0.12. In the case of U25A A47G U74C, the self-cleavage was determined as 0.27. With U25A U41A G61C U74C, the self-cleavage was 0.29. With U25A U31C G42A U51A A56G C68G U78C, the self-cleavage came to 0.04.

Turning to U25A U41C A45U U48C U54C, the self-cleavage stood at 0.13. As to U25C A47G U67C, the self-cleavage came to 0.22. As for U25A A35G C62U, the figure is 0.08; as for U25A A35G A45U U48C A64U U76A, 0.06; as for U25C A28G G33A A45U C81A, 0.11. The value for U25C A35G A77G was 0.33. On to U25C A35U U43C U67C U74A A77G, for which the self-cleavage came to 0.08. The value for U25A U41G U78G was 0.11; that for U25A U43A U67A was 0.07. Take U25C A45U U54C U78C: the self-cleavage is 0.4. The value for U25A A28G A75G was 0.49.

Regarding U25A U41C A45U U51A U80C, the self-cleavage came to 0.1. As for U25C C29A C38A U67C, the self-cleavage came to 0.06. As for U25C A57G U76C U80C, the figure is 0.23; as for U25C A28C U60C G70A, 0.14. As for U25C A28G G30C U31C A47G, the self-cleavage was 0.17. As for U25A A28G A47G, the self-cleavage came out at 0.42.

Consider U25C A35G A45U U80A, for which the self-cleavage came out at 0.12. On to U25C A56U G70C, for which the self-cleavage is 0.09. As for U25C A35C U67C, the figure is 0.07; as for U25C A28G U54A G63C U80A, 0. Take U25C A35U G42A: the self-cleavage was found to be 0.47. As for U25A A35U U66C, the figure is 0.16; as for U25C A35G A64U, 0.12; as for U25C C29U C32U A75C, 0.06. With U25A U48C U51C U76A, the self-cleavage stood at 0.07. G24U U58C A77G: the self-cleavage came out at 0.12.

As to U25A U26A A65G U78A, the self-cleavage was 0.15. Take U25A U49C U67C U72A: the self-cleavage worked out at 0.12. Regarding U25C C27U U51C, the self-cleavage is 0.35. As for U25A G30A U67C A75U, the figure is 0.11; as for U25C A35U U48A U80C, 0.57. The value for G24C U49A A56G was 0.24. With U25A U41C A56G, the self-cleavage stood at 0.25. Turning to U25C A28U A45C U49C A65G U74C, the self-cleavage was 0. Regarding U25C A45G U69A, the self-cleavage amounted to 0.49.

In the case of U25A U43C U51A U54C A65G U76C, the self-cleavage amounted to 0.16.

Consider U25A U54C A56C U67C, for which the self-cleavage came out at 0.08.

Take U25A A64G U69C U80C: the self-cleavage stood at 0.12. On to U25C A35G U48C U60C, for which the self-cleavage was 0.18. The value for G24C G42U U66C U74C U78A was 0.07; that for U25C A65G U67C was 0.17. For U25C A65G U67A, the self-cleavage is 0.21. The value for U25A C38A A56U was 0.24; that for U25A U43C U58C U66C was 0.08; that for U25A A64G U72C was 0.2.
